Source: PubChem BioAssay AID624417 (National Center for Advancing Translational Sciences (NCATS), 2012)
The campaign covered roughly 410,000 compounds. About 6,400 (1.6%) were called active. This list was built around the results that the source calls inconclusive (neither active nor inactive); the mix of calls is not that of the screen. The call rests on the fitted dose curve; in most records, active means well fitted inhibition curve with a large enough effect; inconclusive means small, poorly fitted or top-dose-only effect; inactive means no such curve, though single readings can be large or run the other way. Where the call is inconclusive, the potency comes from a doubtful curve fit.

Target: Glucagon-like peptide 1 receptor (Homo sapiens) (UniProt P43220)
Sequence of UniProt P43220 (P43220 whole entry, looked up): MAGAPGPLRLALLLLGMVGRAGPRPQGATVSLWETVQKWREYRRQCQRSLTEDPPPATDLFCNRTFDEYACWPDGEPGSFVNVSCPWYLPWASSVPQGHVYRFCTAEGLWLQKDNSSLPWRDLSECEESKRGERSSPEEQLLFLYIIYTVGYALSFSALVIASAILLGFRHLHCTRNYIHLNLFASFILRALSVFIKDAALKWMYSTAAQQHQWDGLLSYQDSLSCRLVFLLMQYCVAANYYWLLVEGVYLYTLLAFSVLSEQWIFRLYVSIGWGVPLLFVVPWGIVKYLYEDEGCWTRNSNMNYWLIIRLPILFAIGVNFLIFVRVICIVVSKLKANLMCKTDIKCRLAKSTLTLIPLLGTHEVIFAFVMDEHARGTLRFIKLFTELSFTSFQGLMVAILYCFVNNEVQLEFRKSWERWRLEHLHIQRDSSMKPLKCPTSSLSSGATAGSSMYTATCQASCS
Assay: qHTS of GLP-1 Receptor Inverse Agonists (Inhibition Mode); further: nearly all actives have a fitted effect of over 55% in size
Settings: HEK293 GLP-1R CRE-luciferase, luminescence, 24 h, GLP-1R form is constitutively active; series mostly up to 38.3 µM
Outline: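 Readout was luciferase luminescence, measured 12 min after detection reagent at room temperature. Beforehand, GLP-1R reporter HEK293 cells had sat 12 h, then received compounds for 24 hr at 37 deg C.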
Potency means the concentration at half of the fitted maximal effect; tags describe the fitted curve by direction and shape.

Potency, inactive:
O=C1NC(=Nc2ccccc2)S/C1=C\c1cccn1-c1ccccc1
O=C(Nc1ccccc1)c1cnc[nH]1
O=C(NCC(Cl)c1ccc2ccccc2c1)c1c(F)cccc1F (centres undefined)
Cc1nc(NN)c2c3c(sc2n1)COC(C)(C)C3
O=C1S/C(=C/c2ccc(N3CCOCC3)o2)C(=O)N1Cc1c(F)cccc1Cl
Cc1cccc(C)c1NC(=O)CN(C)C(=O)c1cccc(S(=O)(=O)N2CCN(C)CC2)c1

Potency, inconclusive:
Cc1ccc(OCC(=O)Sc2ccc(C)cc2)cc1 10 µM [inhibitor, partial curve, poor fit]
CCOc1cccc(CN2CCC(n3nccc3NC(=O)C3CCCC3)CC2)c1 11.2 µM [inhibitor, single point]
CCCCn1c(N)c(N(CCOC)C(=O)CN(C)CC(=O)Nc2ccc(Cl)c(Cl)c2)c(=O)[nH]c1=O 15.8 µM [inhibitor, partial curve, poor fit]
CC(C)C(OC(=O)c1cccs1)C(=O)NCc1cccs1 (centres undefined) 8.91 µM [inhibitor, partial curve]
CSc1ccccc1C(=O)C1CCCN(Cc2cnn(-c3ccccc3)c2)C1 (centres undefined) 12.6 µM [inhibitor, single point]
COc1ccc(C(=O)OCC(=O)NC2CCCC2)cc1OC 28.2 µM [inhibitor, single point]
COc1cccc(C(=O)C2CCCN(Cc3cccc(-n4nc(C)cc4C)c3)C2)c1 (centres undefined) 10 µM [inhibitor, partial curve, poor fit]
CCN(CC)c1ccc(CNC(=O)C/C(C)=N/NC(=O)COc2ccc(C)cc2Br)cc1 10 µM [inhibitor, partial curve]
CCOC(=O)c1sc2ccccc2c1S(=O)(=O)N1CCN(c2cccc(OC)c2)CC1 10 µM [inhibitor, partial curve]
Cc1nn(-c2ccc(F)cc2)c(-n2cccc2)c1C(=O)NCCCN1CCN(c2cccc(Cl)c2)CC1 11.2 µM [inhibitor, partial curve, poor fit]
COc1ccc(NC(=O)Cn2c(C)cc(=O)c3ccccc32)cc1 3.16 µM [inhibitor, partial curve, poor fit]
CCc1ccccc1Oc1nc(NC(C)C)nc2ccsc12 28.2 µM [inhibitor, single point]
O=C(/C=C/c1ccccc1Cl)Nc1ccccc1 10 µM [inhibitor, single point]
